# According to PubChem BioAssay AID1347073 (National Center for Advancing Translational Sciences (NCATS), 2019):
# Among all 45,000 compounds or so, about 200 (0.44%) were called active. Another 7% or so got no clear call; they are omitted. The call rests on the fitted dose curve; in most records, active means well fitted activation curve with a large enough effect; inconclusive means small, poorly fitted or top-dose-only effect; inactive means no such curve, though single readings can be large or run the other way. This is one part of the list.
# Assay: qHTS of TDP-43 Inhibitors: NCGC Sytravon Library Screen; further: 0% is about no effect; nearly all actives have a fitted effect of over 55% in size
# Settings: yeast TDP-43 toxicity rescue, BacTiter-Glo growth, 24 h; series mostly up to 46.1 µM; growth rescue (activation): at the top concentration
# Outline: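 TDP-43-expressing yeast, pregrown in raffinose, seeded at OD600 0.02 in galactose medium with compound for 24 hr at 30 deg C. Growth read by BacTiter-Glo luminescence, so rescue of toxicity appears as activation.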
row,SMILES,growth rescue (activation)
1,O=C(O)CNS(=O)(=O)c1c(Cl)cccc1Cl,inactive: 12.3%
2,CC(C)N1C(=S)SC2CS(=O)(=O)C=C21 (stereo not given),inactive: -12%
3,O=C(N/N=C/c1ccc(F)cc1)c1c(O)c2ccccc2[nH]c1=O,inactive: -46.5%
4,CCSC(=S)Nc1c(C)n(C)n(-c2ccccc2)c1=O,inactive: -1.97%
5,Cn1c(CN2CCOCC2)nnc1SCC(=O)Nc1cc(Cl)ccc1Cl,inactive: 0.0794%
6,COc1ccc(S(=O)(=O)NCc2ccco2)cc1NC(=O)c1ccccc1,inactive: 7.96%
7,CCn1nnnc1SCC(=O)N1N=C(c2cccs2)CC1c1cccs1 (stereo not given),inactive: 20%
8,CCOc1ccc2c(c1)c1nnc(SCC(=O)NC3CC3)nc1n2C,inactive: 5.11%
9,Cc1cc(/C=C(\C#N)C(=O)NCc2ccco2)c(C)n1-c1ccc(C(=O)O)cc1,inactive: 13.9%
10,COc1ccc(NC(=O)CN2CCC(C(=O)c3ccc(C)cc3)CC2)c(OC)c1,inactive: 11.7%
11,CCOC(=O)Cc1csc(NC(=O)c2sc3nc4cc(C)ccc4cc3c2N)n1,inactive: -0.798%
12,CCOC(=O)c1ccc(NC(=O)[C@@H](NC(N)=O)C(C)C)cc1,inactive: -0.738%
13,CCCCN(C)C1CCN(C(=S)Nc2cccc(OC)c2)CC1,inactive: -3.55%
14,O=C(/C=C/c1ccco1)NC(=S)Nc1nc(-c2ccc(Cl)cc2)cs1,inactive: -3.15%
15,Cc1cc(Cl)ccc1C(O)c1ncc(-c2ccccc2Cl)[nH]1 (stereo not given),inactive: -1.04%
16,CCOc1ccc(C(C)=O)cc1COC(=O)C1=COCCO1,inactive: 10.1%
17,CC(C)(C)NC(=O)CN(C(=O)c1csnn1)c1cccc2c1CCCC2,inactive: 14.7%
18,O=C(C(c1ccccc1)c1ccccc1)N1CCN(Cc2ccncc2)CC1,inactive: -0.422%
19,COc1cccc(/C=C/C(=O)OCC(=O)NCC2CCCO2)c1OC (stereo not given),inactive: 22.6%
20,CCC(Sc1ncccc1C(=O)Oc1cccc([N+](=O)[O-])c1)C(=O)Nc1ccccc1OC (stereo not given),inactive: -6.63%
21,CN(C)c1ccc(C(=O)OCc2cc(=O)n3ccsc3n2)cc1,inactive: 22.8%
22,O=C(c1ccc(COCC(F)(F)F)o1)N1CCCC1,inactive: 6.15%

row,SMILES,growth rescue (activation)
1,CCN(C(=O)CN1CCC(C)CC1)c1c(N)n(Cc2ccccc2)c(=O)[nH]c1=O,inactive: 16.4%
2,N#Cc1cc(C(=O)c2cc(Br)ccc2O)cn(C2CC2)c1=O,inactive: 15.4%
3,CCN(CC)C(=O)CN(c1cc(Cl)ccc1OC)S(=O)(=O)c1ccc(C)c([N+](=O)[O-])c1,inactive: 12.5%
4,CC(C)COc1ccc(C(=O)Nc2ccc(S(=O)(=O)Nc3ncccn3)cc2)cc1,inactive: 8.63%
5,COc1ccc(-n2cc(CNCCc3ncc(C)[nH]3)c(-c3ccccc3Cl)n2)cc1,inactive: 1.95%
6,CCC(CC)NC(=O)c1oc2ccccc2c1COc1ccccc1,inactive: 1.35%
7,O=C(NCC1CCCN(C(=O)CN2CCCCC2)C1)c1ccccc1Cl (stereo not given),inactive: -9.42%
8,Nn1cnc2scc(-c3cccs3)c2c1=O,inactive: 4.62%
9,C/C(CC(=O)Nc1ccc(Cl)c(C(F)(F)F)c1)=N\NC(N)=S,inactive: 25.4%
10,CN(CCc1ccccn1)C(=O)CCC1CCCN(C(=O)c2ccc3c(c2)OCCO3)C1 (stereo not given),inactive: 2.36%
11,O=C(O)c1cc([N+](=O)[O-])cc2c1C=Cc1ccccc1O2,inactive: 2.65%
12,CC(/C=N/NC(=O)c1sc(N)nc1C)=C\c1ccccc1,inactive: 10.5%
13,O=C(CC1C(=O)NCCN1CC1CCCCC1)NC1(c2ccccc2)CC1 (stereo not given),inactive: -20%
14,CCCCn1c(=O)[nH]c(=O)c2c1nc(Cn1ncc(Cl)c(Cl)c1=O)n2CCC,inactive: 0.677%
15,COc1ccccc1/C=C/C=C(\C#N)C(=O)NC(C)c1ccccc1 (stereo not given),inactive: -17.3%
16,Cc1csc(N(C(=O)c2ccccc2F)c2ccccc2)n1,inactive: -3.55%
17,O=C(Nc1ccc(NC(=O)c2ccco2)c(Cl)c1)c1ccc2c(c1)OCCO2,inactive: 4.28%
18,Cc1ccccc1NC(=S)N1CCCC1,inactive: 15.9%
19,COc1ccc(NC(=O)c2csc3c2CCCCC3)cc1,inactive: 18.8%
20,O=C1C=CC(=O)N1CCCCCCN1C(=O)C=CC1=O,inactive: -93.8%
21,COc1ccc(C(NC(C)=O)c2c(O)ccc3ccccc23)cc1OC (stereo not given),inactive: 2.46%
22,COc1ccc(S(=O)(=O)N2CCCCCC2)cc1C(=O)OCC(=O)NC(C)(C)C,inactive: 8.85%

row,SMILES,growth rescue (activation)
1,Cc1cc(C(=O)NCC(c2ccco2)N(C)C)ccc1[N+](=O)[O-] (stereo not given),inactive: 5%
2,NC(=O)C1CCN(CC(=O)NC2CCCc3ccccc32)CC1 (stereo not given),inactive: 3.24%
3,Cc1c(NC(=O)c2ccc(N(Cc3ccccc3)S(C)(=O)=O)cc2)c(=O)n(-c2ccccc2)n1C,inactive: -2.99%
4,BrC(/C=N/N1CCN(Cc2ccccc2)CC1)=C/c1ccccc1,inactive: 13.7%
5,CCOc1ccc(S(N)(=O)=O)cc1-c1nc2c(C(C)(C)C)nn(C)c2c(=O)[nH]1,inactive: 19.8%
6,CC(=O)OCC1=C(C(=O)O)N2C(=O)C(NC(=O)c3ccc(COc4c(C)cccc4Cl)o3)C2SC1 (stereo not given),inactive: 11.8%
7,COc1ccc(C(=O)OCC(=O)N2CC(=O)Nc3ccccc32)cc1Br,inactive: 13.6%
8,CNC(=O)N(c1ccccc1)c1ccccc1,inactive: 21%
9,CCc1ccc(N2C(=O)C3CCCN3C2=S)cc1 (stereo not given),inactive: 9.41%
10,NC(=O)c1ccc(C(F)(F)F)cn1,inactive: -3.67%
11,Cn1cc(CN2CCCC(C(=O)c3cc(F)ccc3F)C2)c2ccccc21 (stereo not given),inactive: -2.05%
12,Cc1cc2oc(=O)cc(CN(C)Cc3ccccc3Cl)c2cc1C,inactive: -10.3%
13,CCOC(=O)Cc1nnc(NC(=O)C23CC4CC(CC(C4)C2)C3)s1,inactive: 0.231%
14,CCOC(=O)c1c(NC(=O)C2CC2)sc2c1CC(C)(C)OC2,inactive: 1.49%
15,CCC(C)CNC(=O)c1cccc(OC2CCN(CC(C)(C)C)CC2)c1 (stereo not given),inactive: -9.7%
16,CCCc1nnc(NC(=O)C2CC(=O)N(CCc3ccc(F)cc3)C2)s1 (stereo not given),inactive: -2.26%
17,O=C(COC(=O)C1COc2ccccc2O1)NC(=O)Nc1ccc2c(c1)OCCO2 (stereo not given),inactive: 10%
18,COc1cc(/C=C/C(=O)OC(C)C(=O)Nc2c(C)n(C)n(-c3ccccc3)c2=O)ccc1OCC#N (stereo not given),inactive: -10.8%
19,CC1CCCCC1NC(=O)/C(C#N)=C/c1ccccc1F (stereo not given),inactive: -72%
20,CN1C(=O)Cc2cc(S(=O)(=O)Nc3ccc(Cl)cc3)ccc21,inactive: -11.5%
21,O=C(O)COc1ccccc1C(Nc1ccccn1)c1cc(Cl)c2cccnc2c1O (stereo not given),inactive: 10.3%
22,O=C1Nc2ccccc2Oc2cc([N+](=O)[O-])ccc21,inactive: 33.3%

row,SMILES,growth rescue (activation)
1,CC1CCCCN1C(=O)CSc1nnc(-c2ccccc2F)o1 (stereo not given),inactive: -0.928%
2,CC1=CC(C)=Nc2ccc(C)cc2N1,inactive: 8.31%
3,CCOC(=O)C1(C)CCCN1C(=O)c1cccc2ccccc12 (stereo not given),inactive: 10.7%
4,COc1ccc(C(=O)CC(=O)C(=O)Nc2ccc(C)c(C)c2)cc1,inactive: -29.4%
5,Cc1ccc(NC(=O)c2cc([N+](=O)[O-])ccc2N2CCCC2)cc1,inactive: 12.9%
6,Cc1n[nH]c(=O)n1-c1ccc(OCc2ccccc2)cc1,inactive: 2.65%
7,C=CCNS(=O)(=O)c1ccc(C(=O)OCc2cc(=O)oc3cc(OC)ccc23)cc1,inactive: 5.77%
8,COc1ccc(C(=O)c2oc3ccccc3c2NC(=O)COc2ccccc2)cc1,inactive: 10.7%
9,CC(C)NC(=O)NC(=O)COC(=O)Cc1c(F)cccc1Cl,inactive: 11.8%
10,S=C(Nc1ccc(Br)cc1)NC1CCCCC1,inactive: 37.2%
11,CCCS(=O)(=O)NC(=O)C1(C)CCN(C(=O)c2ccc(OC(F)F)cc2)C1 (stereo not given),inactive: -8.09%
12,C=CCN1CCN(C(CCC)c2nnnn2Cc2ccco2)CC1 (stereo not given),inactive: 6.46%
13,Cc1cc(C(=O)Nc2ccccc2C)on1,inactive: -8.13%
14,CC(C)OC(=O)c1cccc(-c2ccc(C=O)o2)c1,inactive: -13.4%
15,Cc1cc(C)n2nc(SC(C)C(=O)Nc3ccccc3F)nc2n1 (stereo not given),inactive: 7.17%
16,Cc1ccccc1Nc1nccc(N(C)C)c1C#N,inactive: 8.19%
17,CC(=O)NC(Cc1ccc(F)cc1)C(=O)NC1CCN(S(=O)(=O)c2ccccc2)CC1 (stereo not given),inactive: 13.9%
18,CC(C)NC(=O)C1(C)CCCN1C(=O)c1ccc2c(c1)C(C)(C)CCC2(C)C (stereo not given),inactive: 15.4%
19,Cc1ccc2nc3c(cc(C(=O)NCCc4ccccc4)c(=N)n3CC3CCCO3)c(=O)n2c1 (stereo not given),inactive: 11.2%
20,COCCCN1C(=O)C(O)=C(C(=O)c2ccco2)C1c1ccc(Br)cc1 (stereo not given),inactive: 4.67%
21,COc1ccc(C(=O)N/N=C(\C)CC(=O)Nc2ccc3c(c2)OCCO3)c(OC)c1,inactive: 2.58%
22,COc1cc(/C=N/NC(=O)c2c(-c3ccccc3)noc2C)cc(OC)c1OC,inactive: 0.433%

row,SMILES,growth rescue (activation)
1,O=c1c2cc(NC(=S)NC3CCN(Cc4ccccc4)CC3)ccc2nc2n1CCCCC2,inactive: 6.01%
2,Cc1cc(C(=O)N/N=C/c2ccc(-c3cccc(Cl)c3Cl)o2)n[nH]1,inactive: 7.78%
3,CC1CC(C)(C)NC(=O)O1 (stereo not given),inactive: -20.3%
4,CC1CCN(C(=S)Nc2cccc(S(=O)(=O)N(C)C)c2)CC1,inactive: 7.53%
5,CN(C(=O)COC(=O)c1cnc(Cl)c(Cl)c1)C1CCS(=O)(=O)C1 (stereo not given),inactive: -6.86%
6,COc1ccc(-c2cc3nc4n(c(=O)c3s2)CCCCC4)cc1,inactive: 16.1%
7,CCC(C)c1ccc(NC(=O)N2CCN(C(=O)C3CCCO3)CC2)cc1 (stereo not given),inactive: 15.1%
8,Cc1ccc(S(=O)(=O)N(CC(=O)N2CCOCC2)c2ccccc2F)cc1,inactive: 7.11%
9,O=C(N/N=C/c1ccc(Br)s1)c1ccncc1,inactive: 13.2%
10,Cc1ccc2[nH]c(C(=O)O)c(NC(=O)[C@@H]3C[C@@H]3c3ccccc3)c2c1,inactive: 7.46%
11,CC(C)CN1CCNC(=O)C1CC(=O)NCCc1ccc(C(F)(F)F)cc1 (stereo not given),inactive: -0.0815%
12,Cc1ccc(N2NC(=O)/C(=C/C=C/c3ccco3)C2=O)cc1C,inactive: 2.5%
13,CCOCC(=O)Nc1ccc(S(=O)(=O)NCC2CCCO2)cc1 (stereo not given),inactive: 9.51%
14,O=C(COC(=O)C1CC2C=CC1C2)Nc1ccc([N+](=O)[O-])cc1 (stereo not given),inactive: -6.89%
15,CC(C)(C)c1ccc(S(=O)(=O)NC(=O)C2(C)CCN2C(=O)Cc2cccs2)cc1 (stereo not given),inactive: 3.33%
16,Cc1cc2ccccn2c1C(=O)c1cccc(S(=O)(=O)N2CCOCC2)c1,inactive: 19%
17,COc1ccc(N2CCN(C(=O)COc3ccc4ccccc4c3)CC2)cc1,inactive: 19.4%
18,O=C(NC1CC1)c1ccc2snnc2c1,inactive: 5.19%
19,N#CC1=C(N)N(c2ccc(Cl)c(Cl)c2)C(=O)C1,inactive: 10.8%
20,COc1ccc(OC)c(S(=O)(=O)NC(=O)C2(C)CCN2C(=O)CC2CCCC2)c1 (stereo not given),inactive: -23%
21,OC1CCN(Cc2cn(Cc3ccccc3)nc2-c2cc3ccccc3o2)CC1,inactive: 3.5%
22,COc1cc(-c2cc(C(=O)Nc3ccc(C)c(S(=O)(=O)N4CCOCC4)c3)c3ccccc3n2)cc(OC)c1OC,inactive: 9.18%
